Reference: paper PMC4336329 (PLoS ONE, 2015)
The campaign covered roughly 310,000 compounds. About 2,200 (0.71%) showed an effect of 50% or more. The effect is printed as a negative number. Some of the results follow.

The molecules below were run against human ether-à-go-go-related gene (hERG) potassium channel (human, UniProt Q12809) (assay: primary screen, population patch clamp on CHO cells stably expressing hERG).
Chain of human ether-à-go-go-related gene (hERG) potassium channel (Q12809 whole entry, looked up): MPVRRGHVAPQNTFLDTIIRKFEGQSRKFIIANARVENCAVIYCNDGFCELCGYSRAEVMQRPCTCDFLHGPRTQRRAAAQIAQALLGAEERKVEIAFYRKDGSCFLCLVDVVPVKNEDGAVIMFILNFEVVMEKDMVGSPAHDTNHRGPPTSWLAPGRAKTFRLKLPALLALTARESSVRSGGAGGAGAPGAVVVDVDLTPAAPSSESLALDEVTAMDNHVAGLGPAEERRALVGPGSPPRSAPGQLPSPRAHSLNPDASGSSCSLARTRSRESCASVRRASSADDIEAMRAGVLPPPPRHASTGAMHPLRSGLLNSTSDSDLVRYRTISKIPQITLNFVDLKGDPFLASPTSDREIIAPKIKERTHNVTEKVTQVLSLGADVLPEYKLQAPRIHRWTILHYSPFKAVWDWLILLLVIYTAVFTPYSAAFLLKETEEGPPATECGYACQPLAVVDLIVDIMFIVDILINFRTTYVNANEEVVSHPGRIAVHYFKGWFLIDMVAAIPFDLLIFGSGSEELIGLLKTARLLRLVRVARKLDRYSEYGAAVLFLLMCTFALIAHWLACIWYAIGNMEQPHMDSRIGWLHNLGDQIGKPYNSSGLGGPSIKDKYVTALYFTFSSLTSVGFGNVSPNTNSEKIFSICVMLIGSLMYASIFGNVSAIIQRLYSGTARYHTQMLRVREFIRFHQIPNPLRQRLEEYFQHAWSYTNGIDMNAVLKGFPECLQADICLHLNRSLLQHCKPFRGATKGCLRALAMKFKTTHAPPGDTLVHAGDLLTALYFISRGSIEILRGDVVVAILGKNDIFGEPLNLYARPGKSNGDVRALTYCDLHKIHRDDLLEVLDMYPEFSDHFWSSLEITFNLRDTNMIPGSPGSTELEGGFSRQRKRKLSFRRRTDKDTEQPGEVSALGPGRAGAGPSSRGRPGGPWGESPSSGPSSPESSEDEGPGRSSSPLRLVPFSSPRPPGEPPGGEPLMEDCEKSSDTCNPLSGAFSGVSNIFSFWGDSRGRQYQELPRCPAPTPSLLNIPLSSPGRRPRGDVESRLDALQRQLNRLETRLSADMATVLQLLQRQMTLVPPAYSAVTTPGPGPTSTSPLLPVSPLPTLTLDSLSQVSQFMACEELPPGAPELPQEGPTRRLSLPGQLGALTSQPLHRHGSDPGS

| Structure (SMILES) | hERG current change (%, negative = inhibition) at 1uM |
| --- | --- |
| O=C(Cn1[nH]c(=O)c2ccccc2c1=O)NC1CCN(Cc2ccccc2)CC1 | 12.9% |
| CCOC(=O)c1cccc(NC(=O)CSc2nnc(CNc3ccc(C)cc3)n2CC)c1 | 3.06% |
| COCCn1c(SCC(=O)NC2CCCCC2C)nnc1-c1ccncc1 (centres unmarked) | 4.04% |
| Cc1cc(C(=O)OCC(=O)Nc2cccc(F)c2)c(C)n1C1CC1 | 5.04% |
| O=C(CNC(=O)c1ccccc1)OC(C(=O)Nc1cc(C(F)(F)F)ccc1Cl)c1ccccc1 (centres unmarked) | 11.8% |
| CCn1cc(C(C)NC(=O)Nc2ccccc2C(=O)OC)c(C)n1 (centres unmarked) | 8.58% |
| CCN(CC)S(=O)(=O)c1ccc(F)c(C(=O)NCCCN2CCOCC2)c1 | -0.0198% |
| OCc1ccccc1O[C@@H]1O[C@H](CO)[C@@H](O)[C@H](O)[C@H]1O | 9.77% |
| Cc1n[nH]c(C)c1S(=O)(=O)N1CCc2ccccc2C1 | 8.95% |
| COc1ccc(NC(=O)C2CC(=O)N(CCc3ccc(Cl)cc3)C2)cc1 (centres unmarked) | -0.574% |
| Cc1ccc(C)c(S(=O)(=O)NC(CC(C)C)C(=O)O)c1 (centres unmarked) | 3.44% |
| CC1(C)CC(CCC(=O)Nc2ccccc2Cl)C(=O)O1 (centres unmarked) | 7.04% |
| COC(=O)Cn1c2ccc(C)cc2c2nc(C)sc21 | -1.12% |
| CC(=O)SCCC(=O)Nc1ccccc1 | 10.5% |
| Cc1occc1C(=O)NNC(=S)NCC(C)C | 6.87% |
| Cc1ccc(CNC(=O)C2CCCN2C(=O)Nc2cccc(Cl)c2)cc1 (centres unmarked) | 9.48% |
| Cc1ccc(C)c(NC(=O)CN(C)C(=O)CSC(C)C(=O)Nc2cc(C)on2)c1 (centres unmarked) | 0.497% |
| CCCCN1C(=O)C2NN=C(C(=O)OCC)C2C1=O (centres unmarked) | 16.2% |
| CC(=O)OCC1=C(C(=O)O)N2C(=O)C(NC(=O)c3ccc(COc4c(C)cccc4Cl)o3)C2SC1 (centres unmarked) | 7.12% |

| Structure (SMILES) | hERG current change (%, negative = inhibition) at 1uM |
| --- | --- |
| COc1ccc(-c2[nH]ncc2/C=N/NC(=O)c2ccncc2)c(OC)c1 | 21.6% |
| Cc1ccc(S(=O)(=O)NC(C)C(=O)NC2CC2)cc1 (centres unmarked) | 14.5% |
| CCN(CC)S(=O)(=O)c1ccc(NC2CCN(Cc3ccccc3)CC2)nc1 | -13.8% |
| CCN(CC)S(=O)(=O)c1cc(NC(=O)C2CC(=O)N(Cc3ccccc3)C2)ccc1Cl (centres unmarked) | 22.4% |
| Cc1cccc(-n2ncc3c(NCCCN4CCCC4=O)ncnc32)c1 | 1.18% |
| COc1cccc(OC)c1C(=O)NC(=O)Nc1c(C)cccc1C | 1.75% |
| O=CC1=C(N2CCOCC2)/C(=C/c2ccc(Cl)cc2)CC1 | 10.5% |
| COc1ccc(/C=C2\SC(=O)N(CC(=O)Nc3ccccc3O)C2=O)cc1OC | 7.58% |
| CCCCN(C(=O)CN1CC(C)OC(C)C1)c1c(N)n(CC(C)C)c(=O)[nH]c1=O (centres unmarked) | 8.12% |
| O=C1COc2ccc(C(=O)CSc3ccccc3C(=O)O)cc2N1 | 13.5% |
| CN1C2CCC1CC(OC(=O)c1c[nH]c3ccccc13)C2 (centres unmarked) | -32.2% |
| CCOC(=O)c1c(-c2ccccc2)csc1NC(=O)c1ccc(N2C(=O)CCC2=O)cc1 | 7.34% |
| O=S(=O)(Nc1ccc(Cc2ccncc2)cc1)c1ccc(Br)cc1 | -2.24% |
| Cc1sc2ncn(CC(=O)Nc3ccccc3F)c(=O)c2c1-c1ccccc1 | 6.13% |
| CCOC(=O)C(C)n1nc(/C=C/c2ccccc2)ccc1=O (centres unmarked) | 14.4% |
| CN(c1ccc(OC(=O)c2ccc(-n3cncn3)c([N+](=O)[O-])c2)cc1)S(=O)(=O)c1ccccc1 | 1.32% |
| O=C(CSc1n[nH]c(-c2ccccc2Cl)n1)NC1CCCCC1 | 13.2% |
| CC(C)CC(=O)NC(=S)Nc1cccc(NC(=O)c2ccccc2Cl)c1 | 8.14% |
| CC(C)(C)C(=O)Nc1sc2c(c1C#N)CCC2 | 16.8% |

| Structure (SMILES) | hERG current change (%, negative = inhibition) at 1uM |
| --- | --- |
| CCC1Oc2ccccc2N(CC(=O)NCCN2CCCC2)C1=O (centres unmarked) | -4.95% |
| Cc1ccn(CCSCC(=O)O)n1 | 3.9% |
| Cc1ccc(C)c(N2CCN(C(=O)c3ccc(Cl)c(NC4=NC5CS(=O)(=O)CC5S4)c3)CC2)c1 (centres unmarked) | 9.66% |
| CCCN1Cc2cccc(C(=O)NC(CC(=O)OCC)c3ccc(OCC)c(OC)c3)c2C1=O (centres unmarked) | 5.56% |
| CCN1CCN(C(=O)C2c3cc(OC)c(OC)cc3C(=O)N(C)C2c2ccc(SC)cc2)CC1 (centres unmarked) | 6.82% |
| CC(=O)OCC(=O)[C@@]1(O)CC[C@H]2[C@@H]3CCC4=CC(=O)C=C[C@]4(C)[C@@]3(F)[C@@H](O)C[C@@]21C | 6.06% |
| C[C@]12CCC(O)CC1CCC1C2CC[C@]2(C)C(c3cc(C(F)(F)F)n[nH]3)CCC12 (some centres unmarked) | 15.6% |
| CC(=O)N1CCN(CC(=O)Nc2ccc(C)c(F)c2)CC1.Cl | 13.1% |
| CCOC(=O)c1cnn(C)c1NC(=O)c1ccc([N+](=O)[O-])cc1 | 7.6% |
| CSc1nnc(-c2cccs2)n1-c1ccccc1 | 5.08% |
| COc1ccc(C)cc1N(CC(=O)O)S(=O)(=O)c1ccc(C)cc1 | 8.68% |
| Cc1c(C)n(CC(O)CN2CCCCCC2)c2ccccc12 (centres unmarked) | 3.69% |
| CC(C)(O)C(=O)N/N=C\c1ccc(OC/C=C/c2ccccc2)cc1 | 17.3% |
| COc1ccc2sc(N(CCCN(C)C)C(=O)c3ccc(S(=O)(=O)N(C)Cc4ccccc4)cc3)nc2c1.Cl | -2.1% |
| CCN1CCN(c2nc3ccccc3s2)CC1 | -2.14% |
| CCn1c(=O)c([N+](=O)[O-])c(NCc2ccco2)c2ccccc21 | 9.47% |
| Cc1cccc(-n2ncc3c2CCCC3NC(=O)CN2CCCC2=O)c1C (centres unmarked) | 16% |
| CC1CCC(NC(=O)c2cccc(S(=O)(=O)NCc3ccccc3)c2)CC1 (centres unmarked) | 5.73% |
